From patent US11178870B2 (priority 2017, dated 2021)

Assays:
[1] = tested on: Phytophthora infestans; assay type: in vivo
[2] = tested on: Colletotrichum orbiculare
[3] = tested on: Magnaporthe grisea; assay type: in vivo; settings: class of control value, Table 7

| SMILES | control value, Test F (late blight on tomato) ([1]; Table 7, Test F) | control value, Test H (anthracnose on cucumber) ([2]; 250 ppm sprayed (2.5 ml/pot) before inoculation, assessed 6 to 10 days after inoculation) | Test A control value (blast on rice) [3] | Test F control value (late blight on tomato) ([1]; class of control value, Table 7) | Test H control value (anthracnose on cucumber) ([2]; 250 ppm spray, 2.5 ml/pot, investigated 6 to 10 days after inoculation) |
| --- | --- | --- | --- | --- | --- |
| CCn1c(-c2ccc(F)cc2C)c(-n2cc(C)cn2)ccc1=O [Compound 367] | L (L shows the control value of 50% or less) | L (L shows the control value of 50% or less) | – | – | – |
| CCn1c(-c2c(F)cccc2F)c(-c2ccsc2C)ccc1=O [Compound 377] | – | – | H (H shows the control value more than 50%) | H (H shows the control value more than 50%) | H (H shows the control value more than 50%) |
